Assay results from PMC12136788.
Some of the results follow.

T1: UNK ZnF1-3 (human, UniProt Q9C0B0 31-174)
T1 sequence: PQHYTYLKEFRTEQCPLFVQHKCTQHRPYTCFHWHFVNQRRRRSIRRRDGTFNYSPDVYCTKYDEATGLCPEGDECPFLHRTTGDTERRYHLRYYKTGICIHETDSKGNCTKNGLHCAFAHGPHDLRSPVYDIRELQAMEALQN

B1: chr6:74304526:74304527:-_ENSG00000119899_ENST00000355773|hu_mus|FALSE|FALSE (ssRNA)
RNA: GGGAGUUCUACAGUCCGACGAUCCAAGUUUAUCAGUGUGUGUGUGUGUGUGUGUGUCCAUUUCAGCUUCAUUUCCUAUGCCCUUACCUUAUAUCAUACUGCCUUUCCUGCAGCCUGAUAUGUGAACCCAGUAUACGGCCUGGCCAACAGAGGAUUGAGCAUCA
B2: 23377108_23377228_938_3pUTR_ENSMUSG00000026158_ENSMUST00000027343|mouse|control|control (ssRNA)
RNA: GGGAGUUCUACAGUCCGACGAUCUCCUGUCUCUAAUUGUAUAAACAAAGUACUCCAGAGCACUCUGCUUAAUAUUGGGAAUAGUAUUCUCCACUAGAGCCUCGUGAAGAAUGAAUUUUACCAGAGGAGAUUUAAAACUCUCGUCAACAGAGGAUUGAGCAUCA
B3: chr16:46990514:46990515:-_ENSG00000069345_ENST00000317089|hu_mus|FALSE|FALSE (ssRNA)
RNA: GGGAGUUCUACAGUCCGACGAUCCAAACCCAUUGUGUGCAAAGCCCAUUUUUCCAUGCAUCUAAAUGAUAGAUACAGGCUAUGAAUUCUUUAUUCUAUUUGUAGCAGCUUAUGCAGGUGCAGCCAAACACAAAGCUUCAGGACCAACAGAGGAUUGAGCAUCA
B4: chr8:35901500:35901501:-_ENSMUSG00000031529_ENSMUST00000033929|mus_mus|FALSE|FALSE (ssRNA)
RNA: GGGAGUUCUACAGUCCGACGAUCUAUAUAACAUGAUCUGUCUUUGUGUGUGGGACAGCCUGUUCCUCCUCCAAUUCCAUAAACAUACUGAUUGCUUUUUGAGGAGUUUUCAGCAAAGUAAAUUCCAGCUCCAAACAUCCCUCCCAACAGAGGAUUGAGCAUCA
B5: chr17:2203652:2203653:-_ENSG00000070366_ENST00000263073|hu_hu|motif|central (ssRNA)
RNA: GGGAGUUCUACAGUCCGACGAUCUCGUCCAGGCUGAUAGAUCUGCAGGUCGGGUUUCUUUGUUCUUUUGAUAAUUUUUAGACGGCGAUCCUCUUGUCCAGCAGUCCUAGGAAAGGAUUCUUGUCCCCGAUUAUUUUCUGGGUCCAACAGAGGAUUGAGCAUCA
B6: chr11:77336104:77336105:-_ENSG00000074201_ENST00000525064|hu_mus|hu_hu_hu_mus_False|98_98 (ssRNA)
RNA: GGGAGUUCUACAGUCCGACGAUCCUCACACAUUGCUGUGAACAUUGCCUCCAAUGCUGACUUAUCACUGGGCACAAAUCGAAAUUCAGAAAUGGGUUCAACAUCAUCAUUGUCUUCCUCAUCUUCAUCAGAGAGAGGUUCUUUCAACAGAGGAUUGAGCAUCA
B7: chr19:55172109:55172110:-_ENSMUSG00000024978_ENSMUST00000061856|mus_hu|motif|central (ssRNA)
RNA: GGGAGUUCUACAGUCCGACGAUCGUGUGCUUACAUCGACCAACACUGUAUUCUGAUGAAUGUGGCAGAUAAGAAACAUCGGUUGUACCAAGGGUCAGUGCAGAUUCAUCCAUGUCACAAAGUGUAAUUCCCAAAUCAUGUGCUCAACAGAGGAUUGAGCAUCA
B8: chr10:33214929:33214930:-_ENSG00000150093_ENST00000302278|hu_hu|hu_hu_hu_mus_True|38_98 (ssRNA)
RNA: GGGAGUUCUACAGUCCGACGAUCAACAAGUUCAUUGAAUACUUCUCCUCUGUCAGUAAGACUAAGCACAUUUUUGUAGCUAAAUGGGCUGGUGCAGUUCUGUUCACUUGUACAAGGAUUUCUUAGCUUUGCUGGGGUUGUGCUCAACAGAGGAUUGAGCAUCA
B9: chr9:107755404:107755405:-_ENSMUSG00000032582_ENSMUST00000035201|mus_mus|motif|central (ssRNA)
RNA: GGGAGUUCUACAGUCCGACGAUCCUCUAUAAUCCAUAGGAGUACCAUCUCCACCCCUGUAGUCCAUAGGUGGUCCUUCUCGGUCCCGAAAAUCCCCAGAAUGUAUGUCCCUGUUCCUGAAGUCCAACUGUGCUGAAUCUCUACCAACAGAGGAUUGAGCAUCA
B10: chr11:50199487:50199488:+_ENSMUSG00000007850_ENSMUST00000069304|mus_mus|FALSE|FALSE (ssRNA)
RNA: GGGAGUUCUACAGUCCGACGAUCGCUCAACAUUGAGCCUUCUUUGAGCGACGCCAAUGUUCACUUAAGAGCAGGCAUAAAACCACAAGGCUGGAUGGAUUGCAAAAUCUGUUAAACUGAGGGGUUUUUUAAAAAAUUUCUUUUCAACAGAGGAUUGAGCAUCA
B11: chr1:39494564:39494565:+_ENSG00000168653_ENST00000372967|hu_hu|hu_hu_hu_mus_True|78_98 (ssRNA)
RNA: GGGAGUUCUACAGUCCGACGAUCAUGCAUUCGCCUCAUCGUUUUCUACCGAAGCAAACACUCUACGAAGUCAUCGAACUCUAUCUUGCACUCCUUUUUCGCCCGGGUCCCACCGAUCCCGUGUGCACACUCUAUCCACUCUUUCAACAGAGGAUUGAGCAUCA
B12: chr11:97546686:97546687:+_ENSMUSG00000038437_ENSMUST00000044730|mus_mus|motif|central (ssRNA)
RNA: GGGAGUUCUACAGUCCGACGAUCUACGAACUGCCCUUCGUACAAAUAACAUCCGUUAUACAAAGAUACAAGACCCAGGCGGUGCACAAUUCCAGGCUUGGAGGUCGCAGGGGAACACCGUCUCUUGGGCUGAGGAUAUAAAGGCAACAGAGGAUUGAGCAUCA
B13: chr4:95690885:95690886:+_ENSMUSG00000028572_ENSMUST00000156910|mus_mus|mus_mus_mus_hu_False|28_38 (ssRNA)
RNA: GGGAGUUCUACAGUCCGACGAUCUUUAGAAAAUGUUAAAUACCAUGCUAAAAUAUUUUCAAAGGCUUAUUUUAUUUUACCAGAAGUCACAGGCAAGCAGACACCAUAAACAUACAAGAAAAUGAAACUCAACAAUAUAACUGUCAACAGAGGAUUGAGCAUCA
B14: chr4:21667751:21667752:+_ENSMUSG00000028252_ENSMUST00000108240|mus_hu|motif|central (ssRNA)
RNA: GGGAGUUCUACAGUCCGACGAUCUUCUAAUAUAUGAUUCAUCCUAUAAGGAAAUUCCUUUGGAAAGGCAUAUGAAAAUCGGGUUUUUAAUACAGAAGUAGCAGCAGCAAUCAAUCUUGUAUUUGAAACUACUCCAAAUUCCUCCAACAGAGGAUUGAGCAUCA
B15: chr6:41757443:41757444:+_ENSG00000214736_ENST00000398881|hu_mus|hu_hu_hu_mus_False|18_58 (ssRNA)
RNA: GGGAGUUCUACAGUCCGACGAUCGAACCGUGCAGAGGCAACAUCUCAGCCGACACUGGGGGAUGGGGGGGCAGUGGGAAACUAGGCAGGCAAGGAGAGGGAGUCAACUUCAGCUGCUCAAACUUCAGGAUCUUGUGGUCACAGCAACAGAGGAUUGAGCAUCA
B16: chr17:49043493:49043494:-_ENSG00000008294_ENST00000510283|hu_mus|FALSE|FALSE (ssRNA)
RNA: GGGAGUUCUACAGUCCGACGAUCUCGAUUUGUUCAUGAUAUACUGAAAUUUCCUAUUAACACUGGUGCAGUAAACUAGCUCGCUCCUCUGUAUUGUUACCAUAGAACAGAUUGUGUAAUAUAAAGGUAACAGGGGAAAAUGCUCAACAGAGGAUUGAGCAUCA
B17: chr1:10024197:10024198:-_ENSMUSG00000025917_ENSMUST00000027050|mus_hu|motif|central (ssRNA)
RNA: GGGAGUUCUACAGUCCGACGAUCGAGCAUCUGAGUACUAACAUCAAUCCCAGAAAGCCAGCAGCCAUAGCCAGGGUGGCGGUGAUACCACCCGAUUGCAUUUUCAAGGCGGCCAACCUGUUUUGCAUUUUCUAUGUAUGCAGCCAACAGAGGAUUGAGCAUCA
B18: chr11:86510823:86510824:-_ENSMUSG00000047126_ENSMUST00000103186|mus_hu|motif|central (ssRNA)
RNA: GGGAGUUCUACAGUCCGACGAUCAAUGGGUUGUGUCUCUGUAGCUUGUUCUUCUUCUUUUCUCAGUGAUUCUGAAGCAUCGGAUUUAUCCACCUUUGUCAAGUACUCCUUCAUGACCUGGAUGAAAUAGGGCAUGGCAAAAUCCAACAGAGGAUUGAGCAUCA
B19: chr5:21408736:21408737:-_ENSMUSG00000042453_ENSMUST00000161356|mus_hu|mus_mus_mus_hu_False|48_78 (ssRNA)
RNA: GGGAGUUCUACAGUCCGACGAUCGUUGACAGAGUUGUAGAUGGUGGCUUCAUGGAACUGGAACGGGGAGCAGCCAAUGCUGUUAGAAGAGGAAGGUAGGCACUGGGUCUGUACGAGCUGCCAGGAAUCCGAUCUUGCAUCCUUCAACAGAGGAUUGAGCAUCA
B20: chr2:48026839:48026840:+_ENSG00000116062_ENST00000540021|hu_hu|hu_hu_hu_mus_False|8_58 (ssRNA)
RNA: GGGAGUUCUACAGUCCGACGAUCAUAGUGAGCCACUAGCGUCCUAAAUCUGGAACAGUGGCGGUCAUCCGAAAACUGACCUAUGAAAAACUUGCCCAGUGAAGUGUCCACAAAGCAAACACCAUACGCACGAGUAUGACCAGACAACAGAGGAUUGAGCAUCA
B21: chr8:26933331:26933332:-_ENSMUSG00000031575_ENSMUST00000166078|mus_hu|motif|central (ssRNA)
RNA: GGGAGUUCUACAGUCCGACGAUCCUGGUGGAACUUGGUUCCCUUUUUGCUCCGCCAAGAAUAGCUAAAUUUAUCAUAACCGGAAGGAGCUUGAAGGUUUCCUAGGGGCUGGGACCAACCCAGUCUGGCAGCGGUAUCUGGUGGCAACAGAGGAUUGAGCAUCA
B22: 77263223_77263343_1906_3pUTR_ENSMUSG00000037926_ENSMUST00000037912|mouse|control|control (ssRNA)
RNA: GGGAGUUCUACAGUCCGACGAUCGUCUGUCUCCAGAUCUUCCACAGCUAAGUCUGGGAACUUGUUGGCAAUGUCUGGGGCCUGUCCAGGUUGGAGUAAGGCUUUAGACGCAUGGCAGUUGUCAAGAGGGAGUUUUGAUUCACUCAACAGAGGAUUGAGCAUCA

target: T1, UNK ZnF1-3; experiment: nsRBNS (natural sequence RNA bind-n-seq); RBNS binding buffer (assumed for nsRBNS): 25 mM Tris pH 7.5, 150 mM KCl, 3 mM MgCl2, 0.01% Triton X-100, 500 ug/ml BSA, 20 U/ml SUPERase-In, 4 C; UNK is unkempt and MSI1 is Musashi-1; names of the RNAs are library labels; protein concentration not given here; high values mean tight binding

Binder | binding signal
B1 | 0.708 enrichment R
B2 | 0.808 enrichment R
B3 | 1.35 enrichment R
B4 | 1.03 enrichment R
B5 | 0.875 enrichment R
B6 | 0.863 enrichment R
B7 | 0.718 enrichment R
B8 | 0.715 enrichment R
B9 | 1.05 enrichment R
B10 | 2.25 enrichment R
B11 | 0.678 enrichment R
B12 | 0.853 enrichment R
B13 | 2.01 enrichment R
B14 | 0.883 enrichment R
B15 | 1.93 enrichment R
B16 | 0.976 enrichment R
B17 | 1.35 enrichment R
B18 | 0.706 enrichment R
B19 | 1.46 enrichment R
B20 | 1.14 enrichment R
B21 | 1.05 enrichment R
B22 | 0.793 enrichment R
